{"source": "paper PMC5116031", "about": "(Biochemistry, 2016)", "proteins": {"B1": {"name": "human BECN1 CCD ([…]) with a C-terminal His6-tag (domain or fragment)", "chain": "not shown"}}, "target": "the molecule itself", "assay": "ITC"}
{"protein": "B1", "values": [{"measurement": "Kd", "value": "48.3 ± 13.5", "unit": "µM"}, {"measurement": "dH", "value": "38.5 ± 25.1", "unit": "kcal/mol"}]}
